The text below walks through data of publication PMC13278974, “Nucleophagy removes cytotoxic trapped PARP1” (Nature Cell Biology, 2026).

The chains behind the UniProt entries cited, without tags or fusion partners. Where a name states a change or a piece, a line headed by the entry shows the natural chain unless it says otherwise.
UniProt P09874: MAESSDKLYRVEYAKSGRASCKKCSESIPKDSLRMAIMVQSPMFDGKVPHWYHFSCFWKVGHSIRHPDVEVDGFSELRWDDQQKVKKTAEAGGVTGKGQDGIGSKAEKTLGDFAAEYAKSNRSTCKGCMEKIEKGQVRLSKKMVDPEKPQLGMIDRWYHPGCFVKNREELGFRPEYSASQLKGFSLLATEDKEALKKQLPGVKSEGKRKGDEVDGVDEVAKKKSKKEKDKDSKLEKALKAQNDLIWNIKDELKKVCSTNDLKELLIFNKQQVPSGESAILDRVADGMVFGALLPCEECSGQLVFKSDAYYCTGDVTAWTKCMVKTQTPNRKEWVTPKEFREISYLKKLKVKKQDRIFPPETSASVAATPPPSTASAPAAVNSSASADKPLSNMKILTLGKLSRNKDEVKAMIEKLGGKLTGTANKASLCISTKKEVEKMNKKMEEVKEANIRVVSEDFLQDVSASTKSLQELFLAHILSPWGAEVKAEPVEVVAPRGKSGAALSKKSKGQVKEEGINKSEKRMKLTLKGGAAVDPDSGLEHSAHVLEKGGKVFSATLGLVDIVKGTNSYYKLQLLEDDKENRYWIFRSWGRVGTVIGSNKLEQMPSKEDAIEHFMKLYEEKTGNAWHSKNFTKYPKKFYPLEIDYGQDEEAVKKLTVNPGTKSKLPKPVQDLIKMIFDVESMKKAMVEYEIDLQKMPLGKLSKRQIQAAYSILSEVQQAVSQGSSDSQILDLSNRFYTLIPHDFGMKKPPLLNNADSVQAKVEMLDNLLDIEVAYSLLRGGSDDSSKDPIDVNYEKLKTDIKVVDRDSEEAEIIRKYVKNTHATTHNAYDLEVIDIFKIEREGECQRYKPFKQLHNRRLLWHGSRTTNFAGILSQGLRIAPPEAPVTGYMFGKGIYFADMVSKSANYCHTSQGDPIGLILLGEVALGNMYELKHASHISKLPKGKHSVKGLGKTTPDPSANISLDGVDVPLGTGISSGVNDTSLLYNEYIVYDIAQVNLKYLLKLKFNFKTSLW
UniProt Q9Y6I9: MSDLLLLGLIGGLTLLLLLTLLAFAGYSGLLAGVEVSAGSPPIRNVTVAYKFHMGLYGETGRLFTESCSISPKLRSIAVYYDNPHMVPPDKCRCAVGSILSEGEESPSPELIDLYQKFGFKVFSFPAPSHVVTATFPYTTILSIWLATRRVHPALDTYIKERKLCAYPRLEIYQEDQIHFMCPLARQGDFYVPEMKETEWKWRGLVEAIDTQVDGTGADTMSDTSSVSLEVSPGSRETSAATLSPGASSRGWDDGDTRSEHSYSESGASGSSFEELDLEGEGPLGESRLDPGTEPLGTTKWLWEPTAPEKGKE

No constants are given. Whether binding was seen depends on the method and setting. For part of these data: Binding seen in cells or lysates may run through a third protein. Some results given as binding are weak or reduced against the parent protein; the word gives no strength.

Experiment [1] concerns the target T1, His–PARP1, full length, recombinant (called GFP-PARP1 / PARP1–GFP in the results and legend) (UniProt P09874 1-1014).
T1 construct: PARP1, full length, cloned into NcoI and BamHI sites of pNIC28; The methods describe only His–PARP1 from pNIC28 with no GFP; Whether GFP was on the protein is open; It was held on PARP1-trap beads; also called pNIC28–PARP1; source: E. coli Rosetta (DE3), purified (HisTrap, SEC Superdex 200)
The experiment in a line: pull-down; PARP1 (2.5 µM) held on PARP1-trap beads, TEX264 (2.5 µM) added in 50 mM HEPES pH 7.4, 500 mM NaCl, 0.01% Triton X-100, 1 mM TCEP, 2 h at 4 °C; washes with 0.1% Triton X-100; western blot; both purified.

Experiment [2] concerns the target PARP1–GFP (PARP1^WT–GFP) stably expressed in CAL51 cells (UniProt P09874). The experiment in a line: co-IP; PARP1–GFP captured on GFP-trap beads from the Benzonase-solubilised chromatin fraction of CAL51 cells, with 50 µg/ml ethidium bromide; cells untreated or treated with talazoparib (200 nM) and MMS (0.01%) for 3 h, with control siRNA or siTEX264; washes with 150 mM NaCl, 0.05% Triton X-100.

Experiment [3] addresses PARP1–GFP stably expressed in HeLa cells (UniProt P09874). As to the kind of experiment: co-IP; PARP1–GFP captured on GFP-trap beads from the chromatin fraction of HeLa cells expressing TEX264 variants, after talazoparib and MMS for 3 h.
The target in experiment [4] is PARP1–GFP (PARP1^WT–GFP) stably expressed in CAL51 cells (UniProt P09874). As to the kind of experiment: proximity ligation; PLA between GFP and V5 in fixed CAL51 cells stably expressing PARP1–GFP and TEX264–V5, untreated or talazoparib for 3 h.

On to “His–TEX264-GyrI (34-185) (from UniProt Q9Y6I9 34-185) (domain or fragment)”, for which the binding entry in experiment [1] is listed as “no binding (tested: 2.5 µM)”.

As to “TEX264, endogenous in CAL51 cells (from UniProt Q9Y6I9 1-313)”, the binding result in experiment [2] is reported as “binds”.

For the substance “TEX264^WT–V5 expressed in HeLa cells (from UniProt Q9Y6I9 1-313)”, the binding entry in experiment [3] is “binds”.

Regarding “TEX264–272 (TEX264 lacking the C terminus from S272 onwards) (from UniProt Q9Y6I9 1-271) (domain or fragment)”, the binding result in experiment [3] is “no binding”.

As for “TEX264–V5 stably expressed in CAL51 PARP1–GFP cells (from UniProt Q9Y6I9 1-313)”, the binding result in experiment [4] is reported as “binds”.

Regarding “p97, endogenous in CAL51 cells (from UniProt P55072 1-806) (enzyme)”, the binding entry in experiment [2] is on record as “binds”.
